In the antibiotic and cytotoxicity screens of Wong et al. (2023) one finds cytotoxicity call and growth inhibition call data, which are given here for 26 molecules.

Each structure is given as a SMILES string. The list shows a part of the results.

For one test, the system named is HSkMC. Kind of test: cytotoxicity call (relative viability < 0.9). The settings on record: 10 µM.
Another test concerns HepG2. Kind of test: cytotoxicity call (relative viability < 0.9). To be noted: 10 µM.
Another test deals with S. aureus RN4220. The test can be described thus: growth inhibition call (relative growth <= 0.2). To be noted: 50 µM.

For the molecule `C[C@@H]1CN([C@@H](C)CO)C(=O)Cc2cc(NC(=O)Cc3ccccc3)ccc2O[C@H]1CN(C)Cc1ccc(-c2ccccc2)cc1`, the cytotoxicity call in the test with HSkMC and in the test with HepG2 was “inactive” each time. For the same molecule, the growth inhibition call with S. aureus RN4220 was “inactive”.

Consider `Cc1ccc(S(=O)(=O)Nc2ccc3c(c2)CC(=O)N([C@H](C)CO)C[C@@H](C)[C@H](CN(C)S(=O)(=O)c2c(C)noc2C)O3)cc1`, for which the cytotoxicity call in the test with HSkMC and in the test on HepG2 was “inactive” each time. Further, the growth inhibition call in the test with S. aureus RN4220 is “inactive”.

In the case of `CO[C@H](CN(C)S(=O)(=O)c1cn(C)cn1)[C@@H](C)CN(C(=O)Nc1ccc(C(F)(F)F)cc1)[C@@H](C)CO`, the cytotoxicity call in the test on HSkMC and in the test on HepG2 was “inactive” each time. Further, in the test on S. aureus RN4220, the growth inhibition call is “active”.

Turning to `C[C@H]1CN([C@@H](C)CO)C(=O)CCCn2cc(nn2)CO[C@H]1CN(C)C(=O)Nc1ccc2c(c1)OCO2`, the cytotoxicity call in the test with HSkMC and with HepG2 was “inactive” each time. Further, in the test on S. aureus RN4220, the growth inhibition call was “inactive”.

For the molecule `Cc1ccc(S(=O)(=O)Nc2ccc3c(c2)C(=O)N([C@@H](C)CO)C[C@H](C)[C@@H](CN(C)Cc2ccc(C(F)(F)F)cc2)OCCCC[C@H](C)O3)cc1`, the cytotoxicity call in the test with HSkMC and in the test on HepG2 was “active” throughout. In addition, the growth inhibition call in the test on S. aureus RN4220 is “inactive”.

`O=C(C[C@H]1CC[C@@H]2[C@H](COC[C@H](O)CN2S(=O)(=O)c2ccccc2F)O1)NCc1ccccc1F`: the cytotoxicity call in the test with HSkMC and with HepG2 was “inactive” in each case. Besides, the growth inhibition call with S. aureus RN4220 is “inactive”.

With `CN1CCC(OC(c2ccccc2)c2ccccc2)CC1.Cl`, the cytotoxicity call in the test with HSkMC and in the test on HepG2 was “inactive” in each case. The growth inhibition call with S. aureus RN4220 was “inactive”.

As for `C[C@H](CO)N1C[C@H](C)[C@H](CN(C)Cc2ccc(F)cc2)Oc2ncc(C#Cc3cccnc3)cc2C1=O`, the cytotoxicity call in the test with HSkMC was “inactive”. Besides, in the test on HepG2, the cytotoxicity call was “active”. In addition, in the test on S. aureus RN4220, the growth inhibition call was “inactive”.

Regarding `COc1ccc(NC(=O)N(C)C[C@@H]2Oc3ccc(NS(=O)(=O)c4cn(C)cn4)cc3CC(=O)N([C@H](C)CO)C[C@@H]2C)cc1`, the cytotoxicity call in the test on HSkMC and in the test on HepG2 was “inactive” each time. For the same molecule, the growth inhibition call in the test with S. aureus RN4220 is “inactive”.

For the molecule `C[C@@H](CO)N1C(=O)[C@@H]2[C@H]3C(=O)OCCC=C[C@H]3O[C@]23C=CCN(CCN2CCOCC2)C(=O)[C@@H]13`, the cytotoxicity call with HSkMC and in the test on HepG2 was “inactive” in each case. Also, the growth inhibition call with S. aureus RN4220 was “inactive”.

Turning to `CC(C)CC#Cc1cnc2c(c1)C(=O)N([C@@H](C)CO)C[C@@H](C)[C@H](CN(C)C(=O)CN1CCOCC1)O2`, the cytotoxicity call in the test on HSkMC and in the test with HepG2 was “inactive” each time. Besides, in the test with S. aureus RN4220, the growth inhibition call was “inactive”.

With `CC(C)N1C[C@@H](CO)CC1=O`, the cytotoxicity call in the test on HSkMC and with HepG2 was “inactive” each time. Moreover, in the test with S. aureus RN4220, the growth inhibition call was “inactive”.

With `O=C(C[C@@H]1CC[C@@H]2[C@H](COC[C@H](O)CN2C(=O)c2ccc3c(c2)OCO3)O1)NC1Cc2ccccc2C1`, the cytotoxicity call in the test on HSkMC and in the test with HepG2 was “inactive” each time. The growth inhibition call with S. aureus RN4220 was “inactive”.

In the case of `OC[C@@]1(O)CO[C@@H](OC[C@H]2O[C@@H](OCCc3ccc(O)cc3)[C@H](O)[C@@H](O)[C@@H]2O)[C@@H]1O`, the cytotoxicity call with HSkMC and with HepG2 was “inactive” each time. Also, the growth inhibition call with S. aureus RN4220 was “inactive”.

Turning to `C[C@H](CO)N1C[C@H](C)[C@@H](CN(C)Cc2ccc(Cl)c(Cl)c2)Oc2c(NS(=O)(=O)c3ccc(F)cc3)cccc2C1=O`, the cytotoxicity call in the test on HSkMC and in the test on HepG2 was “inactive” in each case. Also, the growth inhibition call in the test on S. aureus RN4220 was “inactive”.

Take `Cc1noc(C)c1NC(=O)Nc1cccc2c1O[C@H](CN(C)C(=O)NC(C)C)[C@H](C)CN([C@@H](C)CO)C2=O`: the cytotoxicity call in the test with HSkMC and in the test with HepG2 was “inactive” in each case. Besides, the growth inhibition call in the test on S. aureus RN4220 was “inactive”.

For the molecule `Cc1noc(C)c1NC(=O)Nc1ccc2c(c1)C(=O)N([C@@H](C)CO)C[C@H](C)[C@H](CN(C)S(=O)(=O)c1ccc(F)cc1)OCCCC[C@H](C)O2`, the cytotoxicity call in the test on HSkMC and in the test with HepG2 was “inactive” throughout. In addition, the growth inhibition call in the test with S. aureus RN4220 was “inactive”.

In the case of `O=C(C[C@H]1C=C[C@@H](NC(=O)c2ccc3c(c2)OCO3)[C@@H](CO)O1)NCc1ccc(Oc2ccccc2)cc1`, the cytotoxicity call in the test on HSkMC and in the test on HepG2 was “inactive” throughout. Besides, the growth inhibition call in the test with S. aureus RN4220 was “inactive”.

Take `NNC(=O)c1nnn(-c2nonc2N)c1CN1CCCCC1`: the cytotoxicity call in the test with HSkMC and in the test on HepG2 was “inactive” each time. Also, in the test on S. aureus RN4220, the growth inhibition call was “inactive”.

As for `CN(C)CC(=O)N[C@@H]1CC[C@H](CC(=O)O)O[C@H]1CO`, the cytotoxicity call with HSkMC and in the test with HepG2 was “inactive” in each case. Besides, the growth inhibition call in the test on S. aureus RN4220 is “inactive”.

In the case of `COc1ccc(S(=O)(=O)N(C)C[C@@H]2Oc3ccc(NC(=O)Cn4cnnn4)cc3CC(=O)N([C@H](C)CO)C[C@H]2C)cc1`, the cytotoxicity call with HSkMC and in the test with HepG2 was “inactive” throughout. In addition, the growth inhibition call in the test on S. aureus RN4220 is “inactive”.

For the molecule `C[C@H]1CN([C@@H](C)CO)C(=O)c2c(c3ccccc3n2C)-c2ccccc2CO[C@H]1CN(C)C(=O)Nc1ccccc1`, the cytotoxicity call in the test with HSkMC and with HepG2 was “inactive” throughout. In addition, the growth inhibition call in the test with S. aureus RN4220 was “inactive”.

For the molecule `COC(=O)[C@H](Cc1c[nH]c2ccccc12)NC(=O)[C@H](CCCCCC(=O)[C@@H](C)O)NC(=O)OC(C)(C)C`, the cytotoxicity call in the test with HSkMC and in the test on HepG2 was “inactive” throughout. Besides, in the test on S. aureus RN4220, the growth inhibition call is “inactive”.

Consider `O=C(O)c1cc(O)[nH]c(=O)c1`, for which the cytotoxicity call in the test on HSkMC and with HepG2 was “inactive” each time. For the same molecule, the growth inhibition call in the test on S. aureus RN4220 is “inactive”.

As to `C[C@@H]1CCCCO[C@H](CN(C)CC2CCCCC2)[C@H](C)CN([C@H](C)CO)C(=O)c2cc(NC(=O)Nc3ccc4c(c3)OCO4)ccc2O1`, the cytotoxicity call in the test with HSkMC and in the test with HepG2 was “inactive” each time. Moreover, the growth inhibition call with S. aureus RN4220 was “inactive”.

As to `C[C@@H]1CCCCO[C@@H](CN(C)C(=O)Nc2ccccc2)[C@H](C)CN([C@H](C)CO)C(=O)c2cc(NC(=O)c3ccncc3)ccc2O1`, the cytotoxicity call in the test on HSkMC (human skeletal muscle cells) and in the test with HepG2 was “inactive” throughout. Moreover, the growth inhibition call with S. aureus RN4220 is “inactive”.
